# Reference: the supplement of paper PMC11417369
# The list shows a part of the results.
# System: PF3D7_0420300 AP2 domain 1 (GST-tagged)
# Test: gcPBM binding intensity (ln(normalized median fluorescence intensity)); higher = stronger DNA binding
# How it was run: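 GST-tagged P. falciparum DNA-binding domains produced in E. coli were incubated for 1 h on an Agilent 4 × 180k array of primer-extended double-stranded 36-bp intergenic genomic probes with negative controls. Binding intensity is the highest Masliner-normalised natural-log median intensity across replicate spots of either probe orientation, with bound protein detected by Alexa488 anti-GST antibody at 488 nm.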
row,Sequence,gcPBM binding intensity (ln)
1,GTTAAGTGGATATATACACACATATGCAATACATGA [CACACA_site7427],9.5
2,CAATTCAATATATATACACACACACTATTAATAATT [CACACA_site9256],9.98
3,ATGGTTATATTTGAAGTGCAAAAAAAAATATATGTA,9.24
4,TATACTACCCAGAGCTGTACAAAATAATAATAAGTT [XGTACX_site1045],9.3
5,ATGTGGATTTTATAATGTACATATGATATTATTTTG [XGTACX_site7930],9.28
6,ATTCCTTTATTATCACGTACTTATAAAATATAGTAT [XGTACX_site7498],9.47
7,TTAAATAAAATAAAAACATGCACACTTTATTTTTTT [TGCATGCA_site719],9.28
8,ATAAACAGATAAAAGGGTACACACATATATACATGT [XGTACX_site452],9.9
9,TTATATATATATTGTTCACACATAATATAAATATTT [CACACA_site5835],9.14
10,TTTTTCATTTAGCTTTTACACACTATATATTATTGA [CACACA_site7888],9.5
11,TTTTAATAAATCATTTTCCTAATATTTATATTTGCT [TGCATGCA_negctrl_site232],8.96
12,TTTCTTTTTTCTTCAGTGCATTAAAATTAACAAAAG,8.98
13,TTTGTGTTGTATTTTTGTACATAAAATAAACTTAAA [XGTACX_site4637],8.99
14,GAGCCCAAAAAATTAGGTACGTATAAAGAGGTATTT [XGTACX_site5348],9.05
15,AGGAAAATTTTATTTGCACACATTATTACGTCTAAA [CACACA_site2337],9.34
16,CATATATATATTGGAAGTACATATTTAATATTCATT [XGTACX_site3545],9.27
17,TCTTTTTTCATATTTTCACACATGTCTTTATATTTA [CACACA_site6025],9.61
18,ACATGTAATATAATGTGTACATATACAAAGGTATAT [XGTACX_site4145],9.47
19,AGATGAGAAATATATACACACAATAATACCTATTTA [CACACA_site876],9.8
20,ATAAAGTATATTATATGTACATATATATATTATATA [XGTACX_site1345],9.1
21,AAAATAAAAAAAATAAATAAAAAAAATAATAATAAA [CACACA_negctrl_site563],9.32
22,TCATAAATATAAAGTGTGCACTTGAATAATATGTAT,9.37
23,TAAATAAATCTGTGCTTGCACTTTTTTTGTTATTTT,9.17
24,ATATAAACATATAATAGTACACTTCGATAATTTTAT [XGTACX_site3321],9.35
25,GTACCATCAAAATAAATATATATATATATATATTTT [GTGCAC_negctrl_site646],9.23
